Out of some 310,000 compounds screened, about 2,200 (0.71%) showed an effect of 50% or more. The effect is printed as a negative number. The list shows a part of the results.

In this assay the target is human ether-à-go-go-related gene (hERG) potassium channel (human, UniProt Q12809). The assay can be described thus: primary screen, population patch clamp on CHO cells stably expressing hERG.
human ether-à-go-go-related gene (hERG) potassium channel, sequence (Q12809 whole entry, looked up): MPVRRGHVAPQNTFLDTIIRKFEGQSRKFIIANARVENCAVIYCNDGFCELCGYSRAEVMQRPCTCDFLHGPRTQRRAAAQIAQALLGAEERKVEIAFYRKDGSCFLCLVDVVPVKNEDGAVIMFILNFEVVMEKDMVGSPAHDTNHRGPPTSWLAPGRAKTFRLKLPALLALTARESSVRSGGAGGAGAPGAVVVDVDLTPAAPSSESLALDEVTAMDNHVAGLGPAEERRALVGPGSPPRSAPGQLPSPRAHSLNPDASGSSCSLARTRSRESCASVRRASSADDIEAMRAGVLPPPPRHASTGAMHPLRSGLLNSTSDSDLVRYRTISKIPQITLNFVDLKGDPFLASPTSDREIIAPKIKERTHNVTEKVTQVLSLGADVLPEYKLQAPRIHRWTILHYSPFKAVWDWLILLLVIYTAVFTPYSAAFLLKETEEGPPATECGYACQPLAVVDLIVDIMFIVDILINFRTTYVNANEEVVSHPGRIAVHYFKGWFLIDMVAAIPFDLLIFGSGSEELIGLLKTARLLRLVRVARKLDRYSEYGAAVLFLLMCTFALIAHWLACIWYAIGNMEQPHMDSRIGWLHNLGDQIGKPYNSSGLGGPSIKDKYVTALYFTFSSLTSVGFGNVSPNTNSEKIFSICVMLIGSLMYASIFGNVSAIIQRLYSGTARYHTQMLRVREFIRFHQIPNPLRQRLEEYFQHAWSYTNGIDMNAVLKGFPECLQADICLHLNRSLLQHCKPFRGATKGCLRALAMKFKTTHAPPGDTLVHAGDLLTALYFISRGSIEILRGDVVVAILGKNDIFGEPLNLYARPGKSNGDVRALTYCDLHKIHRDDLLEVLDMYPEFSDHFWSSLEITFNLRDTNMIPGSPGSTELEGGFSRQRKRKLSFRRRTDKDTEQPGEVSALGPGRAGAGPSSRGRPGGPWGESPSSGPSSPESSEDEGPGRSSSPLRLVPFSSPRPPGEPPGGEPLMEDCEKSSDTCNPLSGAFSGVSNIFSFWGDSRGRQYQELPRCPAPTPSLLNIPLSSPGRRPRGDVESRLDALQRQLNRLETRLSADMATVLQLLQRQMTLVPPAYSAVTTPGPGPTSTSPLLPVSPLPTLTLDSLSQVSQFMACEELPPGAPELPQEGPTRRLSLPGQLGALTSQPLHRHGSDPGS
For the compound `O=C(Cn1c(=O)[nH]c2ccsc2c1=O)N1CCN(c2ccc(F)cc2)CC1`, the “hERG current change (%, negative = inhibition) at 1uM” value was -7.95%.

For the compound `CCOc1ccc(N(CC(=O)Nc2c(C)n(C)n(-c3ccccc3)c2=O)S(=O)(=O)c2ccccc2)cc1`, the “hERG current change (%, negative = inhibition) at 1uM” value is given as -14.9%. Turning to `COc1ccc([N+](=O)[O-])cc1NC(=O)COC(=O)C=C(C)C`, the “hERG current change (%, negative = inhibition) at 1uM” value was 6.89%. For the compound `CCCCn1c(NS(=O)(=O)c2ccc(C)cc2)c(S(=O)(=O)c2ccccc2)c2nc3ccccc3nc21`, the “hERG current change (%, negative = inhibition) at 1uM” value was found to be 9.76%.

As for `COc1ccc(CCNc2ccc([N+](=O)[O-])cn2)cc1`, the “hERG current change (%, negative = inhibition) at 1uM” value turned out to be 8.53%. In the case of `COC(=O)c1c(C(C)=O)c(C)n(C)c1C`, the “hERG current change (%, negative = inhibition) at 1uM” value was 12.4%. On to `COc1ccc(-c2cc(C(=O)N3CCCC(C(F)(F)F)C3)c3ccccc3n2)cc1OC` (stereo not drawn), for which the “hERG current change (%, negative = inhibition) at 1uM” value worked out at 6.8%. In the case of `COc1ccc(NS(=O)(=O)c2cc(Br)cc3c2N(C(C)=O)CC3)cc1`, the “hERG current change (%, negative = inhibition) at 1uM” value was 27.7%. In the case of `Cl.c1ccc2c(CN3CCOCC3)csc2c1`, the “hERG current change (%, negative = inhibition) at 1uM” value was found to be 5.46%. Regarding `Cc1ccnc(NS(=O)(=O)c2ccc(NS(=O)(=O)c3cc(Cl)ccc3Cl)cc2)n1`, the “hERG current change (%, negative = inhibition) at 1uM” value was 6.64%. In the case of `CC(C)(C)c1ccc(C(=O)Nc2ccc(Cl)cc2)cc1`, the “hERG current change (%, negative = inhibition) at 1uM” value was 2.26%. Turning to `CCOc1ccc(OCC(=O)Nc2c3c(nn2C(C)(C)C)CS(=O)(=O)C3)cc1`, the “hERG current change (%, negative = inhibition) at 1uM” value is reported as 10.2%. Turning to `CC(C)(C)C(=O)Nc1ccc(C(=O)CN2C(=O)NC3(CCOc4ccccc43)C2=O)cc1` (stereo not drawn), the “hERG current change (%, negative = inhibition) at 1uM” value was 6.51%. Turning to `Cc1cccc(CCNCc2c(C(=O)O)c(C)n(-c3ccccc3)c2C)c1`, the “hERG current change (%, negative = inhibition) at 1uM” value is reported as 14.2%. Consider `COc1ccc(C(O)P(=O)(O)CCc2ccccc2)cc1` (stereo not drawn), for which the “hERG current change (%, negative = inhibition) at 1uM” value is reported as -6.19%. To `CC(C#N)Sc1ccc(S(=O)(=O)N2CCCC2)cn1` (stereo not drawn) belongs 5.38%. To `CCN1C(=O)/C(=C/c2ccc(N3CCCC3)cc2)NC1=S` belongs 2.55%; to `COC(=O)Oc1ccc(/C=N/NC(=O)CN(c2ccccc2Br)S(C)(=O)=O)cc1OC`, -1.33%; to `COc1cccc(C2=NOC(C(=O)NCCCn3ccnc3)C2)c1` (stereo not drawn), 12.9%. On to `CC(=O)Nc1cccc(NS(=O)(=O)c2ccccc2[N+](=O)[O-])c1`, for which the “hERG current change (%, negative = inhibition) at 1uM” value was found to be 7.03%.

`CC1=C(C(N)=O)C(c2ccc(Br)cc2)n2ncnc2N1` (stereo not drawn): the “hERG current change (%, negative = inhibition) at 1uM” value was 15.2%. To `N#Cc1ccc2nc3c(nc2c1)CCCC3` belongs -5.07%; to `COC(=O)C1=C(c2cccc(OCc3ccccc3)c2)C[C@@H]2CC[C@H]1N2C(=O)NCCOc1ccc(OC)cc1`, 4.97%. Consider `COC(=O)c1ccc(CSc2nc3ccccc3c(=O)n2-c2ccc(OC)c(OC)c2)o1`, for which the “hERG current change (%, negative = inhibition) at 1uM” value came out at 15.1%. With `Cc1csc(NC(=O)CSC2=NS(=O)(=O)c3ccccc3N2)n1`, the “hERG current change (%, negative = inhibition) at 1uM” value came out at 12.4%. As for `Cc1cc(C)c(C(=O)NC2CCCc3c2cnn3-c2ccc(C)c(C)c2)c(=O)[nH]1` (stereo not drawn), the “hERG current change (%, negative = inhibition) at 1uM” value is 11%. The value for `Nc1nc(CN2CCN(c3ccccc3F)CC2)nc(N2CCCc3ccccc32)n1` was 6.63%; that for `CCCC(=O)Nc1ccccc1-c1nnc(SC)[nH]c1=O` was 2.86%; that for `CCOC(=O)NC(=O)C(=CNc1ccc(C)cc1)C(=O)NC(=O)OCC` was 9.57%.

On to `CCOC(=O)c1c(C)nc(C)c2c(=O)oc3ccccc3c12`, for which the “hERG current change (%, negative = inhibition) at 1uM” value stood at 4.64%. To `CCOC(=O)c1oc2ccccc2c1NC(=O)C(C)(C)C` belongs -0.56%; to `C=CCN(C(=O)c1csnn1)C(C(=O)NCc1ccc(F)cc1)c1ccccc1F` (stereo not drawn), 1.01%; to `Cc1ccc(C)c(NC(=O)C2CCCN2C(=O)NC2CCCCC2)c1` (stereo not drawn), 32.6%. With `Cl.O=C(C1CCC1)N1CCN(Cc2ccccc2)CC1`, the “hERG current change (%, negative = inhibition) at 1uM” value stood at 11.3%. Regarding `COc1ccc(NC(=O)CN(C)C(=O)c2cn(-c3ccccc3)nc2-c2cccnc2)cc1`, the “hERG current change (%, negative = inhibition) at 1uM” value stood at 9.52%.

As for `Cc1ccc(NC(=O)CN2C(=O)S/C(=C\c3ccccn3)C2=O)cc1C`, the “hERG current change (%, negative = inhibition) at 1uM” value stood at 14.2%. Regarding `COc1ccc(-n2cc(C#N)c(=O)[nH]c2=O)cc1`, the “hERG current change (%, negative = inhibition) at 1uM” value is reported as 24.9%.

For `C=CCNC(=O)/C(=C/c1cccc([N+](=O)[O-])c1)NC(=O)c1ccccc1`, the “hERG current change (%, negative = inhibition) at 1uM” value is -16.1%.

As for `COc1cc(OC)cc(-c2c(C#Cc3ccsc3)c3cc(-c4ccc(OC)nc4)ccc3n2C)c1`, the “hERG current change (%, negative = inhibition) at 1uM” value was determined as 14.9%. On to `COc1ccc(C2/C(=C(\O)c3ccc4c(c3)OCCO4)C(=O)C(=O)N2CCCN(C)C)c(OC)c1` (stereo not drawn), for which the “hERG current change (%, negative = inhibition) at 1uM” value is -3.84%. `Cc1c(C)c2ccc(OCC(=O)Nc3nccs3)cc2oc1=O`: the “hERG current change (%, negative = inhibition) at 1uM” value stood at 6.88%.

As for `NC(=O)c1ncn([C@@H]2O[C@H](CO)[C@@H](O)[C@H]2O)c1O`, the “hERG current change (%, negative = inhibition) at 1uM” value worked out at 8.69%. In the case of `Cc1cc(C)c(NC(=O)CS(=O)CC(=O)NC2CCCc3ccccc32)c(C)c1` (stereo not drawn), the “hERG current change (%, negative = inhibition) at 1uM” value was 16.2%. As to `COc1cc(/C=C2\C(=N)N3N=C(S(C)(=O)=O)SC3=NC2=O)ccc1OS(=O)(=O)c1ccc(C)cc1`, the “hERG current change (%, negative = inhibition) at 1uM” value is 16%. Consider `O=C(Nc1ccc2c(c1)ncn2C1CCCCC1)c1ccco1`, for which the “hERG current change (%, negative = inhibition) at 1uM” value is 0.217%.

In the case of `Cc1cc(NC(=O)c2ccc3c(c2)OCO3)ccc1NC(=O)c1ccccc1`, the “hERG current change (%, negative = inhibition) at 1uM” value amounted to 14.6%. Turning to `Cc1c(C(c2cc(O)ccc2Cl)c2c(C)n(C)n(-c3ccccc3)c2=O)c(=O)n(-c2ccccc2)n1C`, the “hERG current change (%, negative = inhibition) at 1uM” value was found to be 11%. With `COc1ccc2nc(N(CCN(C)C)C(=O)c3ccc4ccccc4c3)sc2c1.Cl`, the “hERG current change (%, negative = inhibition) at 1uM” value is listed as 7.63%. Turning to `CCN1CCN(C(c2cccnc2)c2cc(Cl)c3cccnc3c2O)CC1` (stereo not drawn), the “hERG current change (%, negative = inhibition) at 1uM” value is -24.8%. As for `CCOC(=O)N=Nc1c(O)n(CC(=O)OC)c2ccccc12`, the “hERG current change (%, negative = inhibition) at 1uM” value stood at 10.4%. For the compound `CC(=O)c1cccc(NC(=O)c2ccc(NC(=O)CC3SC(N4CCCCC4)=NC3=O)cc2)c1` (stereo not drawn), the “hERG current change (%, negative = inhibition) at 1uM” value is 5.59%.

`CCCOc1ccc(C(=O)N2CCN(c3ccc(N)cc3Cl)CC2)cc1`: the “hERG current change (%, negative = inhibition) at 1uM” value is -6.51%.

Regarding `Cc1cc(OCCCCCn2ccnc2)cc(C)c1Cl.Cl`, the “hERG current change (%, negative = inhibition) at 1uM” value amounted to 10.2%. To `O=C(CN1C(=O)c2ccccc2S1(=O)=O)NCc1c(F)cccc1F` belongs 6.3%.
